Measured values from the supplement of paper PMC8728848.
The list shows a part of the results.

What was measured:
Assay in all cases: glycan array binding signal (z-score within array); higher = stronger binding
Conditions in all cases: glycan notation: IUPAC condensed, linker removed
[1] = biological target: Gal(a1-3)Gal(b1-4)GlcNAc(b1-2)Man
Procedure, shortened: (§1)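 From the Consortium for Functional Glycomics database, 3228 arrays were curated, keeping only those whose protein sequence was available. Binding is given as a within-array Z-score averaged across arrays sharing a protein sequence and across linkers. Negative Z-scores can be read as non-binding.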

[2] = biological target: Gal(a1-3)Gal(b1-4)GlcNAc(b1-2)Man(a1-3)[Gal(a1-3)Gal(b1-4)GlcNAc(b1-2)Man(a1-6)]Man(b1-4)GlcNAc(b1-4)GlcNAc
Procedure, shortened: as §1

[3] = biological target: Gal(a1-3)Gal(b1-4)GlcNAc(b1-3)GalNAc
Procedure, shortened: as §1

[4] = biological target: Gal(a1-3)Gal(b1-4)GlcNAc(b1-6)GalNAc
Procedure, shortened: as §1

[5] = biological target: Gal(a1-3)Gal(b1-4)[Fuc(a1-3)]GlcNAc
Procedure, shortened: as §1

[6] = biological target: Gal(a1-3)Gal(b1-4)[Fuc(a1-3)]GlcNAc(b1-2)Man(a1-3)[Gal(a1-3)Gal(b1-4)[Fuc(a1-3)]GlcNAc(b1-2)Man(a1-6)]Man(b1-4)GlcNAc(b1-4)GlcNAc
Procedure, shortened: as §1

Gal(a1-3)GalNAc = biological target: Gal(a1-3)GalNAc
Procedure, shortened: as §1

[7] = biological target: Gal(a1-3)[Gal(a1-4)]Gal(b1-4)GlcNAc
Procedure, shortened: as §1

[8] = biological target: Gal(a1-4)Gal(b1-3)GlcNAc(b1-2)Man(a1-3)[Gal(a1-4)Gal(b1-3)GlcNAc(b1-2)Man(a1-6)]Man(b1-4)GlcNAc(b1-4)GlcNAc
Procedure, shortened: as §1

Gal(a1-4)Gal(b1-4)Glc = biological target: Gal(a1-4)Gal(b1-4)Glc
Procedure, shortened: as §1

Gal(a1-4)Gal(b1-4)GlcNAc = biological target: Gal(a1-4)Gal(b1-4)GlcNAc
Procedure, shortened: as §1

[9] = biological target: Gal(a1-4)Gal(b1-4)GlcNAc(b1-2)Man(a1-3)[Gal(a1-4)Gal(b1-4)GlcNAc(b1-2)Man(a1-6)]Man(b1-4)GlcNAc(b1-4)GlcNAc
Procedure, shortened: as §1

[10] = biological target: Gal(a1-4)Gal(b1-4)GlcNAc(b1-3)Gal(b1-4)Glc
Procedure, shortened: as §1

Gal(a1-4)GlcNAc = biological target: Gal(a1-4)GlcNAc
Procedure, shortened: as §1

Gal(a1-6)Glc = biological target: Gal(a1-6)Glc
Procedure, shortened: as §1

Gal(b1-2)Gal = biological target: Gal(b1-2)Gal
Procedure, shortened: as §1

Gal(b1-3)Gal = biological target: Gal(b1-3)Gal
Procedure, shortened: as §1

Gal(b1-3)Gal(b1-4)GlcNAc = biological target: Gal(b1-3)Gal(b1-4)GlcNAc
Procedure, shortened: as §1

Gal(b1-3)GalNAc = biological target: Gal(b1-3)GalNAc
Procedure, shortened: as §1

[11] = biological target: Gal(b1-3)GalNAc(a1-3)[Fuc(a1-2)]Gal(b1-4)Glc
Procedure, shortened: as §1

[12] = biological target: Gal(b1-3)GalNAc(a1-3)[Fuc(a1-2)]Gal(b1-4)GlcNAc
Procedure, shortened: as §1

Gal(b1-3)GalNAc(b1-3)Gal = biological target: Gal(b1-3)GalNAc(b1-3)Gal
Procedure, shortened: as §1

[13] = biological target: Gal(b1-3)GalNAc(b1-3)Gal(a1-4)Gal(b1-4)Glc
Procedure, shortened: as §1

[14] = biological target: Gal(b1-3)GalNAc(b1-4)Gal(b1-4)Glc
Procedure, shortened: as §1

[15] = biological target: Gal(b1-3)GalNAc(b1-4)[Neu5Ac(a2-3)]Gal(b1-4)Glc
Procedure, shortened: as §1

Gal(b1-3)GlcNAc = biological target: Gal(b1-3)GlcNAc
Procedure, shortened: as §1

[16] = biological target: Gal(b1-3)GlcNAc(a1-3)Gal(b1-4)GlcNAc
Procedure, shortened: as §1

[17] = biological target: Gal(b1-3)GlcNAc(a1-6)Gal(b1-4)GlcNAc
Procedure, shortened: as §1

Gal(b1-3)GlcNAc(b1-2)Man = biological target: Gal(b1-3)GlcNAc(b1-2)Man
Procedure, shortened: as §1

[18] = biological target: Gal(b1-3)GlcNAc(b1-2)Man(a1-3)[Gal(b1-3)GlcNAc(b1-2)Man(a1-6)]Man(b1-4)GlcNAc(b1-4)GlcNAc
Procedure, shortened: as §1

[19] = biological target: Gal(b1-3)GlcNAc(b1-2)Man(a1-3)[Gal(b1-3)GlcNAc(b1-2)Man(a1-6)]Man(b1-4)GlcNAc(b1-4)[Fuc(a1-6)]GlcNAc
Procedure, shortened: as §1

[20] = biological target: Gal(b1-3)GlcNAc(b1-2)Man(a1-3)[GlcNAc(b1-4)][Gal(b1-3)GlcNAc(b1-2)Man(a1-6)]Man(b1-4)GlcNAc(b1-4)GlcNAc
Procedure, shortened: as §1

[21] = biological target: Gal(b1-3)GlcNAc(b1-2)[Gal(b1-3)GlcNAc(b1-6)]Man(a1-6)[Gal(b1-3)GlcNAc(b1-2)Man(a1-3)]Man(b1-4)GlcNAc(b1-4)GlcNAc
Procedure, shortened: as §1

[22] = biological target: Gal(b1-3)GlcNAc(b1-3)Gal(b1-3)GlcNAc
Procedure, shortened: as §1

[23] = biological target: Gal(b1-3)GlcNAc(b1-3)Gal(b1-4)Glc
Procedure, shortened: as §1

[24] = biological target: Gal(b1-3)GlcNAc(b1-3)Gal(b1-4)GlcNAc
Procedure, shortened: as §1

[25] = biological target: Gal(b1-3)GlcNAc(b1-3)Gal(b1-4)GlcNAc(b1-2)Man(a1-3)[Gal(b1-3)GlcNAc(b1-3)Gal(b1-4)GlcNAc(b1-2)Man(a1-6)]Man(b1-4)GlcNAc(b1-4)GlcNAc
Procedure, shortened: as §1

[26] = biological target: Gal(b1-3)GlcNAc(b1-3)Gal(b1-4)GlcNAc(b1-2)[Gal(b1-3)GlcNAc(b1-3)Gal(b1-4)GlcNAc(b1-6)]Man(a1-6)[Gal(b1-3)GlcNAc(b1-3)Gal(b1-4)GlcNAc(b1-2)Man(a1-3)]Man(b1-4)GlcNAc(b1-4)[Fuc(a1-6)]GlcNAc
Procedure, shortened: as §1

[27] = biological target: Gal(b1-3)GlcNAc(b1-3)Gal(b1-4)GlcNAc(b1-3)Gal(b1-4)GlcNAc(b1-2)[Gal(b1-3)GlcNAc(b1-3)Gal(b1-4)GlcNAc(b1-3)Gal(b1-4)GlcNAc(b1-6)]Man(a1-6)[Gal(b1-3)GlcNAc(b1-3)Gal(b1-4)GlcNAc(b1-3)Gal(b1-4)GlcNAc(b1-2)Man(a1-3)]Man(b1-4)GlcNAc(b1-4)[Fuc(a1-6)]GlcNAc
Procedure, shortened: as §1

[28] = biological target: Gal(b1-3)GlcNAc(b1-3)Gal(b1-4)GlcNAc(b1-6)[Gal(b1-3)GlcNAc(b1-3)]Gal(b1-4)Glc
Procedure, shortened: as §1

[29] = biological target: Gal(b1-3)GlcNAc(b1-3)Gal(b1-4)[Fuc(a1-3)]GlcNAc
Procedure, shortened: as §1

[30] = biological target: Gal(b1-3)GlcNAc(b1-3)Gal(b1-4)[Fuc(a1-3)]GlcNAc(b1-6)[Gal(b1-3)GlcNAc(b1-3)]Gal(b1-4)Glc
Procedure, shortened: as §1

[31] = biological target: Gal(b1-3)GlcNAc(b1-3)GalNAc
Procedure, shortened: as §1

[32] = biological target: Gal(b1-3)GlcNAc(b1-6)Gal(b1-4)GlcNAc
Procedure, shortened: as §1

[33] = biological target: Gal(b1-3)GlcNAc(b1-6)GalNAc
Procedure, shortened: as §1

B1: Pwp2 (Candida glabrata) (protein)
chain: MGSSHHHHHHSSGLVPRGSHMASKNPVELNNVCTFPNDYGRIPGFTVLVGRLGLLISASDYKELLRYPGAFLIATQDTMTTSPNFELTGFPFFTGLYGLTVFPLDLLVELRGYFVPPNSGQYTFTLSDSDDAAIIFLGNPSAFPCGDLQNWPKPSEEDITVTDHLFPSRTLYLIEGVAYPMRIAYYNGIGAGRLNAAFIDPSGTRHTNWEGYIWQYDPCSTCTYS
Q: Which “glycan array binding signal (z-score)” value [1] does the source give for B1 here?
A: Its value is -0.146.

Q: And the “glycan array binding signal (z-score)” value [2]?
A: The value was 0.804.

Q: What about the “glycan array binding signal (z-score)” value [3] of the same binder?
A: Its value is 0.233.

Q: What about the “glycan array binding signal (z-score)” value [4] of the same binder?
A: The value was -0.281.

Q: And the “glycan array binding signal (z-score)” value [5]?
A: The value was -0.464.

Q: What about the “glycan array binding signal (z-score)” value [6] of the same binder?
A: Its value is 0.233.

Q: And the “glycan array binding signal (z-score)” value (Gal(a1-3)GalNAc)?
A: The value was 0.011.

Q: And the “glycan array binding signal (z-score)” value [7]?
A: Its value is -0.437.

Q: What about the “glycan array binding signal (z-score)” value [8] of the same binder?
A: Its value is -0.651.

Q: And the “glycan array binding signal (z-score)” value (Gal(a1-4)Gal(b1-4)Glc)?
A: Its value is -0.251.

Q: What about the “glycan array binding signal (z-score)” value (Gal(a1-4)Gal(b1-4)GlcNAc) of the same binder?
A: The value was -0.562.

Q: And the “glycan array binding signal (z-score)” value [9]?
A: Its value is 0.195.

Q: And the “glycan array binding signal (z-score)” value [10]?
A: Its value is 1.23.

Q: And the “glycan array binding signal (z-score)” value (Gal(a1-4)GlcNAc)?
A: The value was -0.288.

Q: What about the “glycan array binding signal (z-score)” value (Gal(a1-6)Glc) of the same binder?
A: The value was -1.98.

Q: What about the “glycan array binding signal (z-score)” value (Gal(b1-2)Gal) of the same binder?
A: Its value is -0.438.

Q: And the “glycan array binding signal (z-score)” value (Gal(b1-3)Gal)?
A: Its value is -0.327.

Q: What about the “glycan array binding signal (z-score)” value (Gal(b1-3)Gal(b1-4)GlcNAc) of the same binder?
A: The value was -1.08.

Q: What about the “glycan array binding signal (z-score)” value (Gal(b1-3)GalNAc) of the same binder?
A: The value was -0.544.

Q: And the “glycan array binding signal (z-score)” value [11]?
A: The value was 0.087.

Q: And the “glycan array binding signal (z-score)” value [12]?
A: Its value is -0.583.

Q: What about the “glycan array binding signal (z-score)” value (Gal(b1-3)GalNAc(b1-3)Gal) of the same binder?
A: The value was -0.339.

Q: What about the “glycan array binding signal (z-score)” value [13] of the same binder?
A: Its value is -0.332.

Q: And the “glycan array binding signal (z-score)” value [14]?
A: The value was -0.352.

Q: What about the “glycan array binding signal (z-score)” value [15] of the same binder?
A: Its value is -0.401.

Q: And the “glycan array binding signal (z-score)” value (Gal(b1-3)GlcNAc)?
A: Its value is -0.338.

Q: What about the “glycan array binding signal (z-score)” value [16] of the same binder?
A: The value was 0.16.

Q: And the “glycan array binding signal (z-score)” value [17]?
A: Its value is -0.506.

Q: And the “glycan array binding signal (z-score)” value (Gal(b1-3)GlcNAc(b1-2)Man)?
A: Its value is -0.2.

Q: And the “glycan array binding signal (z-score)” value [18]?
A: Its value is -0.223.

Q: What about the “glycan array binding signal (z-score)” value [19] of the same binder?
A: Its value is 3.56.

Q: And the “glycan array binding signal (z-score)” value [20]?
A: The value was -0.217.

Q: And the “glycan array binding signal (z-score)” value [21]?
A: The value was -0.285.

Q: And the “glycan array binding signal (z-score)” value [22]?
A: Its value is -0.554.

Q: And the “glycan array binding signal (z-score)” value [23]?
A: The value was -0.117.

Q: And the “glycan array binding signal (z-score)” value [24]?
A: Its value is -0.3.

Q: And the “glycan array binding signal (z-score)” value [25]?
A: The value was -0.283.

Q: And the “glycan array binding signal (z-score)” value [26]?
A: The value was 0.209.

Q: What about the “glycan array binding signal (z-score)” value [27] of the same binder?
A: Its value is 1.07.

Q: And the “glycan array binding signal (z-score)” value [28]?
A: Its value is -0.399.

Q: And the “glycan array binding signal (z-score)” value [29]?
A: The value was -0.462.

Q: And the “glycan array binding signal (z-score)” value [30]?
A: The value was -0.639.

Q: And the “glycan array binding signal (z-score)” value [31]?
A: The value was -0.542.

Q: What about the “glycan array binding signal (z-score)” value [32] of the same binder?
A: The value was -0.526.

Q: What about the “glycan array binding signal (z-score)” value [33] of the same binder?
A: The value was 0.159.
